Assay results as given in publication PMC4336329 (PLoS ONE, 2015).
Out of some 310,000 compounds screened, about 14,000 (4.5%) showed an effect of 50% or more. Effects have a minus sign here. This is one part of the list.

target: human ether-à-go-go-related gene (hERG) potassium channel (human, UniProt Q12809); assay: primary screen, population patch clamp on CHO cells stably expressing hERG
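Note: peak tail current of the secondary pulse compared with the same well before compound.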

Sequence of human ether-à-go-go-related gene (hERG) potassium channel (Q12809 whole entry, looked up): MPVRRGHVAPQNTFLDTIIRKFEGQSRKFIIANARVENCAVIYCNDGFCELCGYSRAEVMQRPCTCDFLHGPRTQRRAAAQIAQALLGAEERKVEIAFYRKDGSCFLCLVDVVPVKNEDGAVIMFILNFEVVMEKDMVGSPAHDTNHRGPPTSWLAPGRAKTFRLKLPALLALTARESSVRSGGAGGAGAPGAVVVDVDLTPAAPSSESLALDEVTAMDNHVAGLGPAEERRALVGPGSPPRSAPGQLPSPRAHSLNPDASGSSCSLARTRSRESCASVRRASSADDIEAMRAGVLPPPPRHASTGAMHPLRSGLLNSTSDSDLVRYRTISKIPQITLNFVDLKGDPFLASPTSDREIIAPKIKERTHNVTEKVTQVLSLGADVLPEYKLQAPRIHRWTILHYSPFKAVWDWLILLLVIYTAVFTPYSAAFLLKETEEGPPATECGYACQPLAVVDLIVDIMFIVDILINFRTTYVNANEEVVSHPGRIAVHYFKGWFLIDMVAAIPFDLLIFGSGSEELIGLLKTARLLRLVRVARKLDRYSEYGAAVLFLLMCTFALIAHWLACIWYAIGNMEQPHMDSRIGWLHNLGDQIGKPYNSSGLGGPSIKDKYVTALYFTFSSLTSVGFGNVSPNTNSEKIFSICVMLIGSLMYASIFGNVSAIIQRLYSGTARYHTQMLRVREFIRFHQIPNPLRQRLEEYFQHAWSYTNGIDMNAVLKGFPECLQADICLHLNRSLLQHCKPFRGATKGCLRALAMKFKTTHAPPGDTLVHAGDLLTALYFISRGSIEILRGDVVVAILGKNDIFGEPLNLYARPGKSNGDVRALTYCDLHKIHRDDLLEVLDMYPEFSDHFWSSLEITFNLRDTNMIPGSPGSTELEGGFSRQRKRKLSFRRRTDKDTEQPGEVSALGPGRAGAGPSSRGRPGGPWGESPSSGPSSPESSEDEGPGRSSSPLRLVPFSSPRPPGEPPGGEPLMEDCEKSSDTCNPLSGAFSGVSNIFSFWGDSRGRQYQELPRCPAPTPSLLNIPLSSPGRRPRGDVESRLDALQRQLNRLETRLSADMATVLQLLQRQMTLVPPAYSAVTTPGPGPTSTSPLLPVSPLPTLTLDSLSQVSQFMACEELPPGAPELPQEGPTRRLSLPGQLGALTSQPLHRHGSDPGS

First: COc1cccc(N(CC(=O)Nc2ccccc2C)S(C)(=O)=O)c1
Second: Cc1cccc(NC(=O)c2cccc(S(=O)(=O)N(C)c3ccccc3)c2)n1
The “hERG current change (%, negative = inhibition) at 10uM” value of the first is higher: 0.38% for the first, -28.7% for the second.

Compared with `Cc1ccc(NC(=O)C/C(N)=N/O)cc1Cl`, `COCC(=O)Nc1ccc(C(N)=O)cc1` is lower in “hERG current change (%, negative = inhibition) at 10uM” value: 15.4% for the first, -8.82% for the second.

Going from `C/C=C/c1ccc(OCCNCc2ccccc2)c(OC)c1.O=C(O)C(=O)O` to `O=C(CC(Cc1ccccc1)C(=O)O)Nc1ccccc1` (centres unmarked), the “hERG current change (%, negative = inhibition) at 10uM” value rises from -39.8% to 25.2%.

Compared with `COc1ccc(/C=C/c2c([N+](=O)[O-])c(=O)n(C)c(=O)n2C)cc1`, `COc1cccc(-n2nc(-c3ccnn3-c3cccc(Cl)c3)c(=O)n(C)c2=O)c1` is lower in “hERG current change (%, negative = inhibition) at 10uM” value: 19.7% for the first, -5.04% for the second.

First: O=C(NCCCN1CCOCC1)c1cc(-c2ccccc2)nc2ccccc12
Second: O=C(COc1ccc(S(=O)(=O)N2CCOCC2)cc1)Nc1ccccc1Cl
The “hERG current change (%, negative = inhibition) at 10uM” value of the first is lower: -18.3% for the first, -1.03% for the second.

First: CCC(Sc1nc(C)cc(C)n1)C(=O)Nc1ccc(S(N)(=O)=O)cc1 (centres unmarked)
Second: Cc1cc(C)n2nc(SCCC(=O)NCCc3ccccc3)nc2n1
The “hERG current change (%, negative = inhibition) at 10uM” value of the first is lower: -6.82% for the first, -6% for the second.

Compared with `Cc1ccc(NC(=O)Cc2ccc([N+](=O)[O-])cc2)c(Br)c1`, `CSc1ccc(CNc2ncc(-c3cccc([N+](=O)[O-])c3)n2C)cc1.O=C(O)C(=O)O` is lower in “hERG current change (%, negative = inhibition) at 10uM” value: -0.402% for the first, -66.4% for the second.

Going from `COC(=O)CCC(=O)NNC(=O)c1cccc(Br)c1` to `O=C(NC(=S)Nc1cc(Cl)ccc1O)c1cccc(Br)c1`, the “hERG current change (%, negative = inhibition) at 10uM” value rises from 0.11% to 16.3%.

Compared with `O=C1c2cccnc2C(=O)N1c1ccccc1-c1ccccc1`, `c1ccc(-c2nc3nonc3c3nc4ccccc4n23)cc1` is lower in “hERG current change (%, negative = inhibition) at 10uM” value: 17.3% for the first, -1.83% for the second.

First: CCc1ccc(C(=O)NN(C(=O)c2ccc(CC)cc2)C(C)(C)C)cc1
Second: CCOc1ccc(NC(=O)COC(=O)c2cccnc2)cc1
The “hERG current change (%, negative = inhibition) at 10uM” value of the first is lower: -7.52% for the first, 7.48% for the second.

Going from `C=CCNC(=O)CSc1nnc(-c2ccccn2)n1Cc1ccccc1` to `COc1ccccc1-c1nnc(SCC(=O)O)n1-c1ccccc1`, the “hERG current change (%, negative = inhibition) at 10uM” value rises from 3.01% to 9.58%.

First: CC(NC(=O)CN(C)S(=O)(=O)c1ccc(Br)s1)c1ccccc1 (centres unmarked)
Second: CC(=O)c1cn(S(=O)(=O)c2ccccc2)c2ccccc12
The “hERG current change (%, negative = inhibition) at 10uM” value of the first is higher: 12.8% for the first, -6.8% for the second.

First: CCNS(=O)(=O)c1ccc(CCC(=O)N2CCN(c3ccccc3)CC2)cc1
Second: Cc1cccc(N2CCN(C(=O)CCC(=O)N3Cc4ccccc4Oc4ncccc43)CC2)c1C
The “hERG current change (%, negative = inhibition) at 10uM” value of the first is higher: -16.8% for the first, -21% for the second.

First: CC1c2cccn2CCN1S(=O)(=O)c1ccccc1 (centres unmarked)
Second: O=C(c1ccc(F)cc1)C1CCN(S(=O)(=O)c2ccccc2)CC1
The “hERG current change (%, negative = inhibition) at 10uM” value of the first is higher: 5.9% for the first, -43.1% for the second.

First: O=C(NCc1ccco1)c1cnn2c(C(F)(F)F)cc(-c3ccco3)nc12
Second: COc1ccccc1CNC(=O)c1ccc(-c2ccccc2C(F)(F)F)o1
The “hERG current change (%, negative = inhibition) at 10uM” value of the first is lower: -12.6% for the first, 1.38% for the second.

Going from `Cc1ccc(OCCNC(=O)c2ccccc2O)cc1` to `CCOc1ccc(CC(=O)OCN2C(=O)c3ccccc3C2=O)cc1`, the “hERG current change (%, negative = inhibition) at 10uM” value rises from 8.04% to 9.22%.

First: O=C(/C=C/c1ccccc1)NC(NC(=S)Nc1ccc(Cl)cc1)C(Cl)(Cl)Cl (centres unmarked)
Second: O=C(c1ccccc1)c1coc2ccc(O)c(Cl)c12
The “hERG current change (%, negative = inhibition) at 10uM” value of the first is higher: 15% for the first, -10.9% for the second.

Going from `O=c1cc(-c2ccccc2)nc2nc[nH]n12` to `O=C(COc1ccccc1)Nc1ncccn1`, the “hERG current change (%, negative = inhibition) at 10uM” value falls from 16.3% to 2.49%.

First: O=C(CN1CCN(Cc2ccccc2)CC1)N/N=C/c1cccnc1
Second: CCOC(=O)C1(CCOc2ccccc2)CCN(Cc2cccc(O)c2)CC1
The “hERG current change (%, negative = inhibition) at 10uM” value of the first is higher: -12.8% for the first, -63.1% for the second.

Compared with `CCCN1Cc2cccc(C(=O)Nc3cc(OC)cc(OC)c3)c2C1=O`, `COc1cc(NC(=O)CCc2nnc3ccc(N4CCN(c5cccc(OC)c5)CC4)nn23)cc(OC)c1` is higher in “hERG current change (%, negative = inhibition) at 10uM” value: 4.46% for the first, 7.07% for the second.

First: CCOc1nc2c(c(=O)n(C)c(=O)n2C)n1Cc1ccccc1Cl
Second: Cn1c(=O)c2c(nc(NCc3ccc4c(c3)OCO4)n2Cc2ccccc2Cl)n(C)c1=O
The “hERG current change (%, negative = inhibition) at 10uM” value of the first is lower: -6.62% for the first, 7.49% for the second.

First: COCc1ccc(C(=O)NC2CCCc3c2cnn3-c2ccc(C)c(C)c2)o1 (centres unmarked)
Second: CCc1ccc(-n2c(C)cc(/C=N/NC(=O)OC)c2C)cc1
The “hERG current change (%, negative = inhibition) at 10uM” value of the first is lower: -9.75% for the first, -5.19% for the second.

Compared with `O=C(OCC(=O)c1c[nH]c2ccccc12)c1cc(Br)ccc1O`, `COc1ccc2ccccc2c1-c1csc(N)n1` is higher in “hERG current change (%, negative = inhibition) at 10uM” value: -7.34% for the first, 25.3% for the second.

Going from `Cc1cc(OCC(=O)Nc2ccc3c(c2)OCCO3)ccc1Cl` to `COc1cccc(NC(=O)c2ccc3c(c2)OCO3)c1`, the “hERG current change (%, negative = inhibition) at 10uM” value rises from 8.15% to 10.1%.

Going from `N/C(=N\OC(=O)Cc1ccc(Cl)cc1)c1ccncc1` to `O=C(Cn1cnc([N+](=O)[O-])c1)c1ccc(Cl)cc1`, the “hERG current change (%, negative = inhibition) at 10uM” value rises from -17.1% to -6.34%.

First: COc1ccc2oc(C(=O)OCC(=O)NC3CCCCC3)c(C)c2c1
Second: CCc1ccc(OCc2nnc(SCC(=O)NC3CCCCC3)o2)cc1
The “hERG current change (%, negative = inhibition) at 10uM” value of the first is lower: 0.557% for the first, 13.7% for the second.

First: O=C(CC1(CC2=NS(=O)(=O)c3ccccc3N2)CCCC1)NCCc1ccccc1
Second: CC1CC(=O)N(CC(=O)Nc2ccccc2F)c2ccccc2S1(=O)=O (centres unmarked)
The “hERG current change (%, negative = inhibition) at 10uM” value of the first is lower: -26.9% for the first, 5.23% for the second.

First: CC(C)CN1CCN(Cc2nc(C(C)C)cs2)CC1CCO (centres unmarked)
Second: CCc1nc(N2CCN(C(C)=O)CC2)c(C#N)c2c1COC(C)(C)C2
The “hERG current change (%, negative = inhibition) at 10uM” value of the first is higher: 1.27% for the first, -0.704% for the second.

First: COc1ccc(Cc2nnc(SCC(=O)Nc3c(C)cccc3C)[nH]c2=O)cc1
Second: COc1ccc(N(CC(=O)NCc2ccc(F)cc2)C(=O)c2snc(C(N)=O)c2N)cc1OC
The “hERG current change (%, negative = inhibition) at 10uM” value of the first is higher: 13.6% for the first, 9.58% for the second.

Going from `CCN(CC)CC(=O)Nc1sc(C)cc1C(=O)c1ccccc1` to `CCN(CC)CCNC(=O)Cn1c(=O)c2cccn2c2ccc(F)cc21`, the “hERG current change (%, negative = inhibition) at 10uM” value falls from 14.3% to 3.72%.

First: N#C/C(=C/c1cn(-c2ccccc2)nc1-c1cccc(OCc2ccccc2)c1)C(=O)NCCCn1ccnc1
Second: O=Cc1cn(-c2ccccc2)nc1-c1cc2cc(O)ccc2oc1=O
The “hERG current change (%, negative = inhibition) at 10uM” value of the first is lower: -1.13% for the first, 1.74% for the second.

First: COc1ccc2[nH]c(=O)c(C(c3nnnn3C(C)(C)C)N(Cc3ccco3)CC3CCCO3)cc2c1 (centres unmarked)
Second: COc1ccc2nc(C)cc(Nc3ccccc3O)c2c1.Cl
The “hERG current change (%, negative = inhibition) at 10uM” value of the first is higher: -6.61% for the first, -20.3% for the second.

First: CC1Cc2ccccc2N1C(=O)CSc1nnc(N)s1 (centres unmarked)
Second: CSc1ccccc1-n1nnnc1SCc1ccccc1
The “hERG current change (%, negative = inhibition) at 10uM” value of the first is higher: 13% for the first, -19.9% for the second.

Compared with `CN(c1ccc([N+](=O)[O-])cc1/C=N/NC(=O)COc1ccccc1)C1CCCCC1`, `Cc1ccc(O)c(C(CC(=O)NC2CCCCC2)c2ccccc2)c1` (centres unmarked) is higher in “hERG current change (%, negative = inhibition) at 10uM” value: 7.86% for the first, 11.1% for the second.

First: COc1ccc(CN(C)C(=O)c2cc(S(=O)(=O)N3CCOCC3)ccc2N2CCCC2)cc1
Second: CCN1CCN(S(=O)(=O)c2ccc(C)c([N+](=O)[O-])c2)CC1
The “hERG current change (%, negative = inhibition) at 10uM” value of the first is lower: -35.2% for the first, -0.352% for the second.

Going from `COc1ccc(/C=N/N(CCC(=O)NC(C)(C)C)C2=NS(=O)(=O)c3ccccc32)cc1` to `COc1ccccc1NC(=O)c1ccc2nc(C)sc2c1`, the “hERG current change (%, negative = inhibition) at 10uM” value rises from -5.23% to -1.41%.

Going from `CCOc1cc(C)nc(N2CCCC(C(=O)NCc3ccccc3F)C2)n1` (centres unmarked) to `Cc1cc(N2CCCCC2)nc2ccccc12`, the “hERG current change (%, negative = inhibition) at 10uM” value rises from -15.5% to -9.74%.

Going from `COc1ccc(C(C(=O)NC2CCCC2)N(C(=O)c2snc(-c3ccc(F)cc3)c2N)c2ccc(F)cc2)cc1` (centres unmarked) to `Cc1cc(=O)oc2c(C)c(OC(C)C(=O)NC3CCN(Cc4ccccc4)CC3)ccc12` (centres unmarked), the “hERG current change (%, negative = inhibition) at 10uM” value falls from 1.29% to -48.1%.

Compared with `C=CCNC(=O)c1cccc(C(F)(F)F)c1`, `O=C(N/N=C/c1ccc2c(c1)OCO2)c1sc2cccc(Cl)c2c1Cl` is lower in “hERG current change (%, negative = inhibition) at 10uM” value: 20.5% for the first, 1.95% for the second.

First: Br.COc1ccc(C2CC(c3cccs3)=NN2c2nc(-c3ccccc3)cs2)cc1OC (centres unmarked)
Second: CCCCC(=NCCc1c(C)[nH]c2ccccc12)C1=C(O)CC(c2ccccc2)CC1=O (centres unmarked)
The “hERG current change (%, negative = inhibition) at 10uM” value of the first is lower: 2.47% for the first, 3.52% for the second.

First: CC(=O)c1cccc(NC(=O)C2CCCN2S(=O)(=O)c2cccc3nsnc23)c1 (centres unmarked)
Second: O=C(NCc1cccnc1)C1CC(c2ccccc2O)=NO1 (centres unmarked)
The “hERG current change (%, negative = inhibition) at 10uM” value of the first is lower: -6.42% for the first, 1.66% for the second.

First: O=C(N/N=C\c1ccc(Br)o1)C1COc2ccccc2O1 (centres unmarked)
Second: Cc1cc(NCCOCCO)n2c(nc3ccccc32)c1C#N
The “hERG current change (%, negative = inhibition) at 10uM” value of the first is higher: -6.99% for the first, -46% for the second.

Going from `Cc1cc2ncc(-c3ccc(Cl)cc3)c(N)n2n1` to `CCOc1ccc2c(c1)sc(N)[n+]2Cc1cc(C)cc2cccnc12.[Br-]`, the “hERG current change (%, negative = inhibition) at 10uM” value falls from -20.9% to -74.9%.

First: CC(C)Cc1ccccc1S(N)(=O)=O
Second: Cc1oc2cc3oc(=O)ccc3cc2c1C
The “hERG current change (%, negative = inhibition) at 10uM” value of the first is lower: 5.14% for the first, 17.5% for the second.

For `Cc1ccc(C)c(NC(=O)CSc2nc3c(c(=O)n2C)SC(C)C3)c1` (centres unmarked), the “hERG current change (%, negative = inhibition) at 10uM” value was -8.57%.
